The list shows a part of the results. At the low end of the ranking the order means little.

This assay addresses SIX1-Q177R homeodomain (UniProt Q15475). The assay can be described thus: universal protein binding microarray. Conditions: Universal all-10-mer PBM (8x60K, AMADID 030236), 300 nM GST-tagged protein, Alexa Fluor 488 anti-GST; buffer, salt, pH and temperature not stated; high values mean tight binding; most listed sequences are background and not binding sites; double strand, one strand shown.
In the case of GAAGATGA, the binding signal is -0.253 E-score. The same measure for TCCTAAGA: -0.188 E-score. For GGGCAGCA the value was -0.0895 E-score; for ACGGTGAT, 0.0788 E-score. For CACCCCTC the value was 0.393 E-score; for AGAAACCA, -0.109 E-score; for CGGATTTA, 0.102 E-score. Consider CGCTCACC, for which the binding signal is -0.091 E-score. For CGAACGGA the value was 0.21 E-score; for CAAAGAGC, -0.15 E-score; for AGCGTAAG, -0.182 E-score. Consider ATGCCATG, for which the binding signal was -0.267 E-score. As to AACGAAAG, the binding signal was -0.0673 E-score. For AAGTTAAT the value was -0.158 E-score; for GTGGGTCA, 0.166 E-score; for GGGGAACC, 0.113 E-score. For GCCTCGCA, the binding signal is -0.152 E-score.

For the sequence AACAAAGT, the binding signal was -0.0538 E-score. With GGTAGTCA, the binding signal is -0.0119 E-score. The same measure for CTGTATCC: 0.0762 E-score. The same measure for GATTATAA: -0.14 E-score; for CACCCCGG: 0.338 E-score.

With AATTGTCC, the binding signal was -0.226 E-score.

In the case of CCGTCCCG, the binding signal was -0.225 E-score. With CCAAGGGA, the binding signal is -0.0974 E-score.

For the sequence TGGATCCA, the binding signal is -0.0177 E-score.

AGAGCCAT: the binding signal is -0.142 E-score. The same measure for CGGTGGAA: -0.0693 E-score; for AGGCGAAC: -0.00716 E-score.

GACTTATC: the binding signal was -0.233 E-score. The same measure for AAGCGTAT: -0.172 E-score. For CGTTCGAA the value was -0.0607 E-score; for AGTAACGA, -0.14 E-score. The same measure for CGCAATGC: -0.00698 E-score; for CAGGGCGC: -0.0746 E-score.

Consider GGTCAAAA, for which the binding signal was found to be 0.0649 E-score.

For GCTTCTAA, the binding signal was -0.153 E-score. Turning to CCGGTTGA, the binding signal amounted to 0.0296 E-score. The same measure for TAGGCGGA: -0.0265 E-score; for CCAAATAA: -0.035 E-score; for GAGATCCC: 0.143 E-score. In the case of CGCACTGC, the binding signal was -0.0649 E-score.

With GCAATACC, the binding signal amounted to 0.166 E-score. For CGCGGGAA the value was -0.0378 E-score; for GCACTCGA, 0.0224 E-score; for CCGCATCA, 0.0678 E-score. The same measure for ATTCGGGA: -0.0598 E-score; for CCCGGGAC: 0.106 E-score. The same measure for AGCCACTA: -0.231 E-score; for GTCTAACA: 0.204 E-score; for CACCCCAG: 0.36 E-score. As for TATTAAAA, the binding signal came to 0.00166 E-score.

With CGTTGCAC, the binding signal worked out at 0.0413 E-score. Turning to GAGGGCTA, the binding signal was -0.0107 E-score. For ACAACGTA the value was -0.0795 E-score; for CATGACCG, -0.0178 E-score.

For AGTTTCAC, the binding signal is -0.0336 E-score. The same measure for CACCGTAG: 0.255 E-score; for GACAGTGA: -0.0177 E-score. The same measure for AGACTCAA: 0.0888 E-score; for CGGAGAAC: 0.00618 E-score; for ATATTGTG: 0.0273 E-score. The same measure for ACGTGATA: 0.0673 E-score; for CGTGGCCC: -0.122 E-score. Take GAGAGGTA: the binding signal was 0.114 E-score.

Regarding ATGTGGGC, the binding signal was -0.187 E-score. In the case of GCTATCAC, the binding signal was -0.0277 E-score. The same measure for CTGCTGGA: -0.212 E-score; for AAAAAAAA: -0.0314 E-score; for GCACCACA: 0.154 E-score. The same measure for ACCGGAAA: 0.0805 E-score. For ATACCAAC the value was 0.163 E-score; for ACCGGTGA, 0.0601 E-score.

Take CCGTTAAC: the binding signal was -0.068 E-score. The same measure for AAGGACTA: -0.229 E-score; for ACGTTGAC: 0.0452 E-score; for CAAATAAC: -0.0463 E-score. The same measure for AGGTCATC: -0.04 E-score.

As to ACCTCTTA, the binding signal was 0.0413 E-score. For AATACGCA the value was -0.138 E-score. For CCTGGCTA, the binding signal was -0.139 E-score. On to TCACGCAA, for which the binding signal was -0.188 E-score. For ACCATCGT the value was -0.133 E-score; for GTAAAAAC, -0.0026 E-score. Take ATCATGCA: the binding signal was -0.0868 E-score.

Take GTTTTACA: the binding signal was 0.0695 E-score. For AGGGTCAA the value was 0.0776 E-score. The same measure for AGCTGAAC: -0.0318 E-score; for AAACAAGG: -0.018 E-score; for TCGTTGAA: -0.212 E-score.

With CGCCTGCC, the binding signal was -0.19 E-score. In the case of ATTTAGCG, the binding signal is -0.136 E-score. For CCCATACG the value was -0.0284 E-score. The same measure for AATTTTGC: -0.135 E-score; for ATATAAGC: -0.0874 E-score.

In the case of CCCTCACC, the binding signal was 0.101 E-score.

On to AAGATCTT, for which the binding signal is -0.291 E-score.

As for CGTCGCCA, the binding signal is -0.201 E-score. For GCGCGCCC the value was -0.0549 E-score. For the sequence TTAACAAA, the binding signal is -0.222 E-score. For GCGCCGAA the value was -0.205 E-score; for AGCGATAC, 0.14 E-score. The same measure for GCTAGCAA: -0.0876 E-score. The same measure for AAAAAGTC: -0.0776 E-score. In the case of GGTAATAA, the binding signal was determined as 0.0416 E-score. The same measure for AGCGTACA: 0.0474 E-score. The same measure for TAGGTATA: -0.0208 E-score. For AAGAAGTC the value was -0.082 E-score.

Regarding CGACGCGA, the binding signal turned out to be 0.151 E-score. For AAAATCCA the value was 0.0691 E-score.

These data come from paper PMC10668032.
